Test results from ChEMBL document CHEMBL4888484, “Replenishing the malaria drug discovery pipeline: Screening and hit evaluation of the MMV Hit Generation Library 1 (HGL1) against asexual blood stage Plasmodium falciparum ,using a nano luciferase reporter read-out” (2022).
Hit rate of the full screen: of about 150,000 compounds, about 540 (0.36%) showed an effect of 50% or more. This is one part of the list.

These molecules were tested on Plasmodium falciparum (assay: Primary screen in NF54 nanoGlo assay, in single point, at 2uM, 72h; a lower Z score goes with more inhibition). Details: timepoint 72 hour.
Format: functional, Erythrocyte

SMILES | % Inhibition [%] | Z score
CCOC(=O)N1CCC(Nc2nnc(C)o2)CC1 | -16 | 2.08
O=S(=O)(c1ccc(F)cc1)N1CCN(Cc2nc3ccccc3o2)CC1 | -26 | 2.29
Cc1ccsc1S(=O)(=O)N1CC2(CCC2(F)F)C1 | 1 | -0.27
C[C@H](O)[C@H](C(=O)O)n1cnc(-c2ccccc2)c1-c1ccc(N(C)C)nc1 | -15 | 2.91
CCO[C@H]1CN(C(=O)c2cc(C)oc2C)C[C@@H]1O | 5 | -0.84
O=S(=O)(c1ccc2oc3ccc(S(=O)(=O)N4CCCC4)cc3c2c1)N1CCCC1 | -14 | 1.79
O=C1N(CC2CCC2)CCC[C@@]1(O)CNC1Cc2ccccc2C1 | -24 | 2.15
Cc1ccc(N(Cc2ccco2)C(=O)c2ccc(C(N)=O)cn2)cc1 | -1 | 0.14
CCCNC(=O)NC(=O)COc1ccc(Br)cc1C#N | -10 | 1.3
CC(C)=CCN1CCC(CNC(=O)c2cnn(C)c2C)CC1 | -2 | 0.23
CCNc1nc(C(=O)N2CCN(C3CC3)C[C@H](C)C2)cs1 | -7 | 1
O=C([C@H]1CCCNCC1)N1CC=C(c2ccccc2)CC1 | 1 | -0.11
CN(C(=O)NCCCc1nc(-c2ccccn2)cs1)C1CCCC1 | -13 | 2.27
O=S(=O)(CC1CC2(CCC2)C1)N1CC2(CCC2)[C@H]1c1ccncc1 | -7 | 1.05
O=C(NCc1ccc2c(c1)CCCC2)[C@@H]1CNCCO1 | -7 | 1.1
COc1cc(C)ccc1CNC1CS(=O)(=O)C1 | 0 | 0.06
CCCc1cc(C(=O)NS(=O)(=O)CC2CC2)[nH]n1 | 25 | -2.86
O=C(CCS(=O)(=O)c1ccccc1)N1CC[C@H](Oc2cc(C(F)(F)F)ccn2)C1 | -6 | 1.09
O=S(=O)(N[C@H](c1c[nH]c2ccccc12)C(Cl)(Cl)Cl)c1ccc(Cl)cc1 | -5 | 0.64
Cc1nc(CCNC(=O)C[C@H]2C(=O)NCCN2Cc2ccccc2)no1 | -4 | 0.78
CCc1nc(C)cc(N(C)CCn2nc(C)cc2C)n1 | -18 | 1.72
OC[C@H](Cc1c[nH]c2ccccc12)Nc1ccc2nnnn2n1 | -4 | 0.68
O=C(O)c1cc(-c2cccc3ccnn23)cc(S(=O)(=O)N2CCCCCC2)c1 | -3 | 0.51
Cc1cccc2c1C(=O)N(CCc1ccccc1)[C@@H](c1ccc(N3CCN(C)CC3)cc1)N2 | 4 | -0.59
CCOc1ccc(NC(=O)C2CCN(S(=O)(=O)c3ccc(-c4noc(C5CC5)n4)cc3)CC2)cc1 | -24 | 2.9
COCC(=O)Nc1cc2nc(-c3ccccc3)oc2nc1C | -16 | 2.1
N[C@H]1C[C@H](c2cc(NCCCc3cccnc3)nc(C3CC3)n2)C1 | 71 | -7.09
CC1(C)C(c2ccccn2)=[N+]([O-])C(C)(C)N1O | -7 | 1.39

SMILES | % Inhibition [%] | Z score
CN(C[C@H]1CCCCO1)C(=O)CCc1ccc(=O)[nH]n1 | -2 | 0.34
COc1cccc(C(=O)N2CCC(N3C[C@H](O)C[C@H]3C(=O)N3CCc4ccccc4C3)CC2)c1 | -10 | 1.29
COc1ccc2ncc(OCC3(C)COC3)nc2c1 | -6 | 1.05
CCC(NC(=O)CC1CCCCO1)(C(N)=O)C(C)C (stereo not given) | -9 | 1.03
Cc1nc(OCC(=O)NCc2cccnc2)c2c(-c3ccc(F)cc3)noc2n1 | 0 | -0.04
OC1CC2CCC(C1)N2Cc1ccn(-c2ccccc2)n1 (stereo not given) | 32 | -3.67
CCCC(=O)Nc1ccc(N(C)C)nc1 | -5 | 0.43
CN(CCC(=O)N1CCOCC1)Cc1cccc(C#N)c1 | -11 | 1.51
O=C(O)C1(Oc2cccc(F)c2)CCN(CCCc2ccccc2)CC1 | -2 | 0.43
CCn1cc(S(=O)(=O)Nc2nnc(CC3CCCC3)s2)cn1 | 30 | -3.42
NCC1CCCN(C(=O)[C@H]2C[C@@H]2c2ccccc2C(F)(F)F)C1 (stereo not given in full) | -2 | 0.43
CC1(C)C[C@@](C)(c2ccccc2)c2ccccc2N1CC(=O)c1ccccc1 | 7 | -0.85
CC(C)c1nc(CCNC(=O)N(C)Cc2cscn2)no1 | -4 | 0.59
COc1ccc(C(=O)N(CCN2CCCC2)C2CCOCC2)c(C)c1 | -12 | 2.01
CNC(=O)Cc1noc(C2(c3ccccc3)CCC2)n1 | 8 | -1.15
c1cc(-c2ccn[nH]2)cc(-c2nccs2)c1 | -7 | 0.94
Cc1cccc(-c2nc3ccc(C(=O)NCc4ccc(F)cc4)cc3nc2-c2cccc(C)c2)c1 | 11 | -1.91
CC1CN(C(=O)c2cc3n(n2)[C@H](C(F)(F)F)C[C@H](c2ccco2)N3)CC(C)O1 (stereo not given in full) | -4 | 0.59
CN(CCO)CC(=O)NCCc1cccs1 | -3 | 0.54
COCCc1nncn1C1CCN(C(=O)c2cc(C)ccc2C)CC1 | -2 | 0.37
COC1CCN(S(=O)(=O)N2CCOC[C@H]2c2cccc(F)c2)CC1 | -14 | 1.31
CC(CN1CCN2C(=O)NCC2C1)c1cccc(Br)c1 (stereo not given) | -10 | 1.04
CN(C)S(=O)(=O)N1C[C@H]2CC[C@@H](C1)N(Cc1cccc(C#N)c1)C2 | -16 | 1.88
O=C(c1cccc(CO)n1)N1CCC(c2cc(N3CCCC3)ncn2)CC1 | -12 | 2.42
CCn1nc(C)cc1C(=O)Nc1cc(O[C@@H](C)c2ccccc2)ccn1 | -3 | 0.55
COc1cc(N2C(=O)CN(Cc3ccccc3O)C2=O)ccn1 | -2 | 0.25
COC(=O)Nc1cccc(N[C@@H](C)C2CCOCC2)c1 | -4 | 0.33
